Assay results taken from publication PMC7819943, “Rice protein-binding microarrays: a tool to detect cis-acting elements near promoter regions in rice”.
Some of the results follow.

Biological target: T1, OsWOX13 (Oryza sativa, UniProt Q5QMM3 1-267)
T1 sequence: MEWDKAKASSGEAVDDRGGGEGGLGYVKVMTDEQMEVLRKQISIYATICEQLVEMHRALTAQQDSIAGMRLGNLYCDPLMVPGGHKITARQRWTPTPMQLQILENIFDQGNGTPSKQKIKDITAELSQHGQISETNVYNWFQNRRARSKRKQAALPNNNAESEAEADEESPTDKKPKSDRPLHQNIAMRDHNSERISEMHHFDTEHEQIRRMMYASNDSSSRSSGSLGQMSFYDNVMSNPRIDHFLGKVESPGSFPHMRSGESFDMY
Assay: protein-binding microarray (RPBM); PBS, 2% BSA, 51.3 ng/ul salmon testes DNA, 50 uM zinc acetate, 200 nM TF, 25 C, 1 h; high values mean tight binding
Settings: protein: recombinant; tags: N-terminal polyhistidine and DsRed monomer fusion (pET32a); label: CyDye5-dUTP incorporated in the synthesized complementary strand; 3' TTTTT single-stranded linker to array surface; dsDNA, one strand shown
In short: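 The binding signal is fluorescence intensity per feature, in arbitrary units, read on an Axon 4000B scanner. Polyhistidine- and DsRed-tagged transcription factors (N-terminal fusions) from E. coli BL21-CodonPlus were purified on Ni–NTA and applied at 200 nM for 1 h at 25 °C to a double-stranded, BSA-blocked custom Agilent array in buffer with 50 µM zinc acetate.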

Row | Sequence | binding signal
1 | CTCTATAACAAGCTATAATTGGCCTCGAAACTAAACCTTGCGGAGTCACCTAGTGCAG | 11800 fluorescence intensity (a.u.)
2 | TGCAGTCCTCTAATGATTAATATTTCACCACAGGTTGTTCCGGAGTCACCTAGTGCAG | 3690 fluorescence intensity (a.u.)
3 | GGATTATCATATAATAGATTAGCAAACTAATACCAAATCCCGGAGTCACCTAGTGCAG | 11900 fluorescence intensity (a.u.)
4 | ACCAACTGTTGATTTCCTTTGCAATGTCTTGTGATACCACCGGAGTCACCTAGTGCAG | 4450 fluorescence intensity (a.u.)
5 | AAAATAATTGATTGCAGCAGTAGTGGTTATTTTGGCAAGACGGAGTCACCTAGTGCAG | 50100 fluorescence intensity (a.u.)
6 | TTGATTGTGAATTTATAATGTTTGGATATAATGATTACTTCGGAGTCACCTAGTGCAG | 34500 fluorescence intensity (a.u.)
7 | ATTGTCCGGACCAATCATTAATCATATCCCAAAGCATGGTCGGAGTCACCTAGTGCAG | 5040 fluorescence intensity (a.u.)
8 | AGCCCATCAATTTAGATAAGGTAATATTGGAGATTATATGCGGAGTCACCTAGTGCAG | 11400 fluorescence intensity (a.u.)
9 | GCCCAATTAAAACCCAATAGAAAGCCCACCTCCATCTCCACGGAGTCACCTAGTGCAG | 3610 fluorescence intensity (a.u.)
10 | GCTAAATTGGATAATTCATCATAGATTTTGCATGAATGATCGGAGTCACCTAGTGCAG | 21200 fluorescence intensity (a.u.)
11 | GAAGTGGGTGAGGAGGGGTGATTGCTCGGGGACGCGTTGCCGGAGTCACCTAGTGCAG | 5090 fluorescence intensity (a.u.)
12 | TCTATAATCACTCTGTACTCTATATTATCTTGATTTTCTGCGGAGTCACCTAGTGCAG | 3150 fluorescence intensity (a.u.)
13 | TTAATTGCCACATTAAAAGTGGCATATAGTTCAAAATCTCCGGAGTCACCTAGTGCAG | 4260 fluorescence intensity (a.u.)
14 | AACTTATTCCGATTAATTAAGCGACGGCTTCCTCCTCAACCGGAGTCACCTAGTGCAG | 7590 fluorescence intensity (a.u.)
15 | GTGATTGAATTTGTCCAGATTCATTGTTCTAGGAAATATCCGGAGTCACCTAGTGCAG | 36100 fluorescence intensity (a.u.)
16 | TTCCTGTAATTTCCTGCTTCTTTTCGCTGCATGCTGCTTGCGGAGTCACCTAGTGCAG | 4070 fluorescence intensity (a.u.)
17 | TACCTCGCGACTAATTGGGCCTCCACTAACACCTAGATTCCGGAGTCACCTAGTGCAG | 4340 fluorescence intensity (a.u.)
18 | CAAATCAATTTCCCTGTCCTAACGCCCAAATGTAATAGTACGGAGTCACCTAGTGCAG | 7130 fluorescence intensity (a.u.)
19 | TGGGGTATCTAGTCAATCATACAATATTTTGTTTTGCTAACGGAGTCACCTAGTGCAG | 7400 fluorescence intensity (a.u.)
20 | ATATCAAATTAGTTTCATTGAATATATTTTGATAATATGTCGGAGTCACCTAGTGCAG | 7170 fluorescence intensity (a.u.)
21 | AAGGTACCAATTAGGAGTAGTTAAAATGTGGGCCAGGTATCGGAGTCACCTAGTGCAG | 3870 fluorescence intensity (a.u.)

Row | Sequence | binding signal
22 | ACATTAATTACGAGGACTATTAAGCAAAATCAGAGAAATGCGGAGTCACCTAGTGCAG | 13500 fluorescence intensity (a.u.)
23 | AGCTAATATTTCATAAATTATTCGTGAATCCACGGCTCCACGGAGTCACCTAGTGCAG | 3410 fluorescence intensity (a.u.)
24 | GGATATTAATTCCTCGTAAAATTGTCTCCCTCGACTTGCCCGGAGTCACCTAGTGCAG | 3580 fluorescence intensity (a.u.)
25 | ACCAAATTAATGTAGCAGAACGCAGTACAACCAAATTAAACGGAGTCACCTAGTGCAG | 4280 fluorescence intensity (a.u.)
26 | AACCGTTTGATTGGACTCCAACTTCAGAAAAGGTGAAGCTCGGAGTCACCTAGTGCAG | 22700 fluorescence intensity (a.u.)
27 | GTTAACTGAATATTATATCGAAGAAAACTTGCATTTCAGACGGAGTCACCTAGTGCAG | 7980 fluorescence intensity (a.u.)
28 | TCTAACAAAACGTAATAATTTTCTTACAGGAATTCTAGTTCGGAGTCACCTAGTGCAG | 4480 fluorescence intensity (a.u.)
29 | ATAACAAGATGATAATTAATTAACTGGTTTCCGCATCAATCGGAGTCACCTAGTGCAG | 34200 fluorescence intensity (a.u.)
30 | TTTTATATTTTAATTAATTACATAATGTAAATATTTCTCACGGAGTCACCTAGTGCAG | 17100 fluorescence intensity (a.u.)
31 | AAAAGGATTAAATTGGCAGTTCATGAAAATGCTTATAGAACGGAGTCACCTAGTGCAG | 9860 fluorescence intensity (a.u.)
32 | TTCCTTGCCAATCTGTCATTCTGATTTCAAGTTGAACATGCGGAGTCACCTAGTGCAG | 14600 fluorescence intensity (a.u.)
33 | GCGAATGATTGGTTATATATCCTTCGGGTTCAAGCAAAGGCGGAGTCACCTAGTGCAG | 37900 fluorescence intensity (a.u.)
34 | CTACCATGATATTATATAATTTCCTTGTCAATTCATATCCCGGAGTCACCTAGTGCAG | 3850 fluorescence intensity (a.u.)
35 | AGCACCACTCATTAATCATTTCCATCACAGGTAAATCGTGCGGAGTCACCTAGTGCAG | 6430 fluorescence intensity (a.u.)
36 | CCGTGCTTAATTAACTACTATTAGGTATGTGGTATTTATACGGAGTCACCTAGTGCAG | 8400 fluorescence intensity (a.u.)
37 | TATAAATTTGTGTCCGGTTTATTGGGTTTGAATTGAATTGCGGAGTCACCTAGTGCAG | 14600 fluorescence intensity (a.u.)
38 | ATATATATATATATATATATATATATATATAGTGGAATGACGGAGTCACCTAGTGCAG | 23500 fluorescence intensity (a.u.)
39 | CAAACTAGATTTGTTGCTAAATTGAATTGTTATGTCATTACGGAGTCACCTAGTGCAG | 22800 fluorescence intensity (a.u.)
40 | ACTAATTATAAATCAGAACGATTTATTAACTACTCAATAACGGAGTCACCTAGTGCAG | 24400 fluorescence intensity (a.u.)
41 | GCTAATCATGGACTAATTAGGCTCAAAAGATTCGTCTCACCGGAGTCACCTAGTGCAG | 28700 fluorescence intensity (a.u.)
42 | AACCTTGATTTGTTCTCCCTAGCTGTAAATAATTTCACAGCGGAGTCACCTAGTGCAG | 31800 fluorescence intensity (a.u.)
